Consider 57 sequences from the supplement of paper PMC11417369.

± gives the standard deviation of the averaged measurements. This is one part of the list.

This assay has as its system PfAP2-LT AP2 domain (GST-tagged). Kind of assay: gcPBM binding intensity (ln(normalized median fluorescence intensity)); higher = stronger DNA binding. Put shortly:
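In this array assay, P. falciparum DNA-binding domains with a GST tag, expressed in E. coli, were applied for 1 h to primer-extended double-stranded 36-bp intergenic genomic probes and negative controls on an Agilent 4 × 180k array. Bound protein was visualised with Alexa488 anti-GST antibody at 488 nm. Binding intensity is the highest Masliner-normalised natural-log median intensity across replicate spots of either probe orientation.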
As to “ATACATAAAATTAAAACACACATTTGATTAAATACG [CACACA_site7088]”, the “gcPBM binding intensity (ln)” value came out at 8.92 ± 0.4.
Next, ATCAAGCGCAATGTGGTGCGTAAATTTTGTATTATA: 8.87 ± 0.45; “GTCTAAGCTTATAGGCGTACACATGAATATGGATGT [XGTACX_site2439]”: 9.04 ± 0.4.
In the case of “GGATTTATTATATATACACACATACATATATATATA [CACACA_site8669]”, the “gcPBM binding intensity (ln)” value came to 9.12 ± 0.18.
The same measure for “AGTATACGAATAAAATGTACATACAAATTGTTGTAA [XGTACX_site36]”: 8.94 ± 0.48.
Next, “TATATATATATATCCACACACATACAGATATTAAGA [CACACA_site4214]”: 9.35 ± 0.15; “TCCTTAAAATATATCACACATTTCGTTCATTTATAA [CACACA_site4346]”: 8.71 ± 0.43; “ATATATATATATATATGTACATATATATACATATAT [XGTACX_site6987]”: 9.69 ± 0.38.
Next, “ATTCACGTGTCTTAAAAAAAAAAAAAAGAAAAAAAG [CACACA_negctrl_site573]”: 8.35 ± 0.46.
On to “ATAATATATATACAAACACACAATTGTGTCCACATT [CACACA_site1747]”, for which the “gcPBM binding intensity (ln)” value turned out to be 9.36 ± 0.46.
Next, “TGTACATATATATAATATATATATCATCATATTTTC [CACACA_negctrl_site1750]”: 8.77 ± 0.42.
For CTCATTTTGTTAATGGTGCAAAAAAAAAAAAAAAAA, the “gcPBM binding intensity (ln)” value was found to be 8.39 ± 0.32.
Consider “ATGAAAAAAAGACATGCATGTAAATATAAATTGCTT [TGCATGCA_site504]”, for which the “gcPBM binding intensity (ln)” value amounted to 9.48 ± 0.42.
For “CATTATAAGAGACACACACACATATATAAATATGTA [CACACA_site6621]”, the “gcPBM binding intensity (ln)” value came out at 9.63 ± 0.38.
Consider “TATTTAAAACTATACACATGCATTATATAAAGATAT [TGCATGCA_site702]”, for which the “gcPBM binding intensity (ln)” value was 8.62 ± 0.4.
The same measure for “AGTAAGAGGCATTAAGCATGCATATTATTATAAGCA [TGCATGCA_site237]”: 9.07 ± 0.5.
In the case of “TTTCATTTTTGAAGGTGTACTTAAAATTTATGTAAT [XGTACX_site6671]”, the “gcPBM binding intensity (ln)” value is 8.41 ± 0.54.
As to “AAAATTTATTATCTATATAATAATATGAAACAAAAC [GTGCAC_negctrl_site731]”, the “gcPBM binding intensity (ln)” value stood at 8.58 ± 0.51.
The same measure for “AAAAAAACATAAAATACACACAACCTTAAGAATGTA [CACACA_site3293]”: 9.12 ± 0.38; for “TTATAAAATATATATACATGCACAAAATTATAAGTA [TGCATGCA_site294]”: 8.88 ± 0.45.
For the sequence “AATCAACATTTTTTTTGCTATTTTTTTTTTTAATTA [CACACA_negctrl_site891]”, the “gcPBM binding intensity (ln)” value came out at 8.53 ± 0.61.
For the sequence “TATAATATAAAATATGCACACATTGGAATGGGAGAA [CACACA_site3746]”, the “gcPBM binding intensity (ln)” value stood at 9.1 ± 0.38.
The same measure for “GACAATATTAAAACATGTACATGCATTTTATGAATA [XGTACX_site553]”: 8.81 ± 0.42; for “TATTGTAAAGTGTCATTATTACGTTATATTATATAT [CACACA_negctrl_site98]”: 8.89 ± 0.4.
Turning to “TAAAAAAAAGGAAATACATGCATCTACATATATATA [TGCATGCA_site500]”, the “gcPBM binding intensity (ln)” value was found to be 8.73 ± 0.38.
For the sequence “AAAAACTAACTGTATTGTACTCTCTTATAAATTCAC [XGTACX_site8967]”, the “gcPBM binding intensity (ln)” value worked out at 8.7 ± 0.45.
As for “ATATAGGTAATAATAATACACACGGTGAAATATAGA [CACACA_site4040]”, the “gcPBM binding intensity (ln)” value turned out to be 9.16 ± 0.5.
With “AAAAAAAAAATATATATATATATATAATATATATAT [TGCATGCA_negctrl_site329]”, the “gcPBM binding intensity (ln)” value turned out to be 9.09 ± 0.72.
As for “ATATATTTCATTTTTGTACACACAACGTTGGAGGGT [CACACA_site8999]”, the “gcPBM binding intensity (ln)” value is 9.15 ± 0.5.
For “TATAATTTAAAATACACACACATATATATAATATAT [CACACA_site2000]”, the “gcPBM binding intensity (ln)” value amounted to 9.31 ± 0.24.
“TCCAAATGAAAAAATTGTACATATTTTATCATATAT [XGTACX_site6159]”: the “gcPBM binding intensity (ln)” value came out at 8.55 ± 0.52.
As to “TAAATACATTTATATACACACCTATATATATATATA [CACACA_site5137]”, the “gcPBM binding intensity (ln)” value came out at 9.355 ± 0.078.
Next, “ATAAGAAATTTCATACGTACATAAATAAATATATAT [XGTACX_site2932]”: 8.78 ± 0.42.
Next, “TATAAAGACACGTACACACACTAAGTATATCCAATA [CACACA_site6855]”: 9.46 ± 0.33; “GTATGATGTGAACATTGTACGAATGAATATATCTAA [XGTACX_site3789]”: 8.8 ± 0.38.
The same measure for “ATATAAGTATACACATGTACATATTTCTTATGTATA [XGTACX_site2854]”: 8.87 ± 0.43; for “AAAAAATTTATAAAAGCACACAAAATAAAAAAAAAT [CACACA_site8420]”: 8.95 ± 0.54; for “AAAATGTTAAATATTAAATATGAAACAAAAAAAAAA [GTGCAC_negctrl_site211]”: 8.49 ± 0.53.
With “AAAATTATTTTTATGTGTACTTATTTATTATTTATA [XGTACX_site6665]”, the “gcPBM binding intensity (ln)” value is 8.79 ± 0.46.
Regarding “TTGTATTCCTTTTACAACTACCATGAAGAGAATTTT [CACACA_negctrl_site1286]”, the “gcPBM binding intensity (ln)” value was determined as 8.38 ± 0.3.
The same measure for “TGATAACCTAATAATACACACACATGAATATATATA [CACACA_site8226]”: 9.38 ± 0.32.
“TAAAAAAAATAGCATACACACATATATACATATATA [CACACA_site658]”: the “gcPBM binding intensity (ln)” value came out at 8.98 ± 0.41.
Next, “GTCGCCAAAAGGTGTACACATAATGCATTATCATAA [CACACA_site6112]”: 8.97 ± 0.47; “TACACATAATATAATGCATGTGTGATGTATGTTTAA [TGCATGCA_site697]”: 8.98 ± 0.31; “ATTAAAAAATTATTCACACAAAATAAAAAAATGAAA [CACACA_site4918]”: 8.59 ± 0.52.
Take “ATATTTAGGATTATCTGTACATAATATGTTTAATTA [XGTACX_site3426]”: the “gcPBM binding intensity (ln)” value was determined as 8.58 ± 0.47.
For the sequence “AAATATTTGGAGAAATGTACATATTATAAATATATT [XGTACX_site6885]”, the “gcPBM binding intensity (ln)” value worked out at 8.87 ± 0.42.
For “CTAGGAAATTATATGGGTACTCATATTCATAAAAAA [XGTACX_site1846]”, the “gcPBM binding intensity (ln)” value came to 8.53 ± 0.53.
Next, “AAAAAAAACGCACATACACACACACCCATATATATA [CACACA_site9118]”: 10.13 ± 0.028; AAAAAAAAAAAAAAGGTGCAAATAAATTAACCTTAT: 8.56 ± 0.57; “TTTTATTTTTTCCGACGTACATCCATTATATATAAT [XGTACX_site4469]”: 8.89 ± 0.49.
Next, “AAATGTTAAAATGACAGTACATATATAAAAAAAAAA [XGTACX_site3936]”: 8.8 ± 0.59; “AAAAAAAGAATGTGAACACACACATTGAATATAATT [CACACA_site8341]”: 9.23 ± 0.5.
The same measure for “AAGAACAGAACGTACACACACATATATATATATATA [CACACA_site3457]”: 10.2 ± 0.28; for “AATTATTTACCCTATACACACAAAACCCACTAAAAA [CACACA_site4801]”: 9.28 ± 0.29; for “TATAAATAAATACATACACACACATACATATATATA [CACACA_site9024]”: 9.66 ± 0.014.
Take “AATCATATGAAAAATACATGCGCATGGATACCTTTA [TGCATGCA_site224]”: the “gcPBM binding intensity (ln)” value came out at 9.14 ± 0.35.
